Test results: the supplement of paper PMC12632987
In all, about 2,300 sequences were measured (“median log2 fold change of GCK-ALFA target abundance (FLAG IP / Myc IP barcode read proportion)”: median about 0.095, lowest 2% from about -0.47 on). This is one part of the list.

B1: LC3A_3_1464 (protein)
chain: AEELLKEAREILEKQGASEETIKAAEELLEALAKKGYEKAMETLVKKLKEMKDVSSEILLATLKDLLHIVKTQDLDEEEIVKEIEREFSAAKAEQEIIEL
B2: LC3A_17_578 (protein)
chain: SAEVKALYERALKVMEKAAKFAAKHDAAAAAKIKALIAEAKAAAKTGDDREILETIARLMDEVANILDSLEPLDPEEASLLSMEADGVAIEAESLLLKLE
B3: LC3A_3_1806 (protein)
chain: AEERIEALLARLRAAGASPETIEAARRALTLLAERGYEEALETLIEELERLLDAPDELLLDLLERVLEFLETNDASEEEVKEFIEEEARLAENESEIIEL
B4: LC3A_28_1323 (protein)
chain: SHIKEELEKAEKEAEEQAAKGEDITLTVKITGSTTLEEAKEMMEKLEEIAEKYAPKRKVNIIIDLDGKVKQEVIDLISEKAEEIEKKYPNVTVIIALDEE
B5: LC3A_147_459 (protein)
chain: MVVEVDLIVKSEKAVEEIKADFEALVAELKARGYDVELEIEVEKLDENTYYVRVTIRVKAETKEEAERIKNEILSRVDEIIEKHKDEILGALISAEFEEP
B6: LC3A_28_1310 (protein)
chain: TPIEERLAAARAEAEEAAARGEPVVVTIPITAEEAEKNLELILAGLEELGEVASRVPDAAIIIDVDEKVDPEHLTKIAERAEEIEERYPNVTVIIAIEDN
B7: LC3A_28_918 (protein)
chain: MTPEEIKAAIKAAVDKAIAEGKEAHIEIEIGSDTTPEEAREIMEALRKEVARAAAAGLEVDITVDLDDVSQEVLDIVADALDEIEEEYPKASAIIALDED
B8: LC3A_3_1569 (protein)
chain: SEERIEAALARLREAGFSEEVIAAARKALEALAAKGAYEAMDRFVDAMLEMKDAPEELLIAFAEDVLEIVETSKDDLETIQKKIDEEITIYLNESEIIEL
B9: LC3A_3_1555 (protein)
chain: MEELREETLEELRRAGASEEVLEAARETLEALEARGYEEAARTLVEEVREMLDLPDEILLDFLEEVRELIETEDLDEETVIERIRELATIARNEGEIEEL
B10: LC3A_3_1719 (protein)
chain: MEEIIEEIIETLKKQGRSEETIEAARKLAEALKEKGYLEALKTLLELLKEAKDISDEIMLDMLKELLYIVENEDLSEEELIKKIKEEFKVAKLEEEIEEL
B11: LC3A_45_1971 (protein)
chain: MARVTIHLLVPREKAEEALRIIREEFERLEEEYGGKIEFDREALEASYEASKDEEEVYLEVIITAETRELALDAADRIVDTLNERLGENVAAIIEVEELP
B12: LC3A_17_551 (protein)
chain: KEEIKKELEKLLKELEKLVKKLEEYDPEKAKKLKKKLEEAKKLLEEGKLEEAAKLLAETADELANVFDELEPKYGVEASVLSMEASGLELEAIGLLLKLE
B13: LC3A_147_415 (protein)
chain: MTVEVSIDLLGRLSDEEIEELVEELKKVGEEFGAEVEVKVRVEDLPGGRRYVEIDITLKGVEKEKAQPLINALIDTVDKFVEKYKDKIDGALISSEAIED
B14: LC3A_free_8_2519 (protein)
chain: KSKAFAQRVVAILEELEKEIVKLLKEKGASRLDILEAELLIGSIIAEVISLQDKSPEEIIKAVKEGLKELVEELEKYKEEVKKLAEEALKKIEAAKKELE
B15: LC3A_3_1804 (protein)
chain: SEEKIKELLEKLKEAGKSEETIEAVREALEKLKERGYEEALKTFIEEMEELIDVPDELLLRLAKDVLEYLETNDDSEEETKEFIKEEARLTKLEAEIEEL
B16: LC3A_102_140 (protein)
chain: SLEEKVEEKIKELLEEMKKFLEKDKSLSEEEKKEILELTEKALKAAAKNTITELQHGYTDIVAEDELLENLEKLKKISEKVAEKAKELIKKLEEYIKKLL
B17: LC3A_59_2036 (protein)
chain: APTAEEIVAQIIATLNKAAKELEKAGDDMAAAKKIIDAMMAEVDALLAELAKVDPELAAEVKAELDAMKEELAKAKTVKEMADIVRTTALGIELILNELD
B18: LC3A_3_1493 (protein)
chain: MEELLERVREVLEELGASPEEIERVLEDARELLERGYEKTVERLIELLRRYRHLSPRDLVAAALTVADVAIEENLSEEEAVEKAERIFEDVAEIEELDEE
B19: LC3A_28_865 (protein)
chain: SKTEESAEEALKEAKEAKAKGESTVIVIRIYGKASEEEIDKVIEALKEIAEILKDIPNQGIIIEAEEPIDPEQLKKLADAADEIEKKYPNVTVIIALPEE

The binders below were run against MAP1LC3A, Q9H492 (assay: median log2 fold change of GCK-ALFA target abundance (FLAG IP / Myc IP barcode read proportion) (log2 ratio); each designed protein is fused to an ALFA-tag nanobody in HEK293 cells to bring the named protein to FLAG-tagged glucokinase (GCK); Myc marks an untargeted standard; higher = target protein stabilised (more abundant)). Conditions: target protein: 3xFLAG-MCP-GCK-ALFA reporter; HEK293 landing pad (RPLP).
In short: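 HEK293 landing-pad cells received a recombined binder library fused to the ALFA nanobody and were induced with 2 μg mL^−1 doxycycline, then transfected with a plasmid encoding a FLAG-tagged target and a Myc-tagged standard. Lysates were collected after 48 h for anti-FLAG and anti-Myc immunoprecipitation, and the circular RNA barcodes were reverse transcribed, amplified and sequenced. Target abundance for each binder is the median log2 ratio of FLAG to Myc barcode read proportions. Barcodes had to reach a proportion of at least 10^−7 in both replicates, each binder needed at least 3 barcodes per replicate, a pseudocount of 10^−6 was applied, and the two replicates were pooled.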
With B1 the “median log2 fold change” value was 0.332.
In the case of B2, the “median log2 fold change” value is reported as -0.0942.
B3 was tested, and the “median log2 fold change” value was 0.0118.
With B4 the “median log2 fold change” value was 0.19.
With B5 the “median log2 fold change” value was -0.008.
With B6 the “median log2 fold change” value was 0.0746.
In the case of B7, the “median log2 fold change” value is reported as 0.108.
For B8, the “median log2 fold change” value was 0.227.
In the case of B9, the “median log2 fold change” value is reported as 0.181.
In the case of B10, the “median log2 fold change” value is reported as 0.0215.
With B11 the “median log2 fold change” value was -0.000266.
B12 was tested, and the “median log2 fold change” value was -0.051.
For B13, the “median log2 fold change” value was -0.146.
In the case of B14, the “median log2 fold change” value is reported as -0.243.
With B15 the “median log2 fold change” value was 0.12.
In the case of B16, the “median log2 fold change” value is reported as 0.288.
With B17 the “median log2 fold change” value was 0.356.
For B18, the “median log2 fold change” value was -0.221.
For B19, the “median log2 fold change” value was 0.279.
